Measured values from article PMC6919601, “Identification of Plasmodium dipeptidyl aminopeptidase allosteric inhibitors by high throughput screening” (PLoS ONE, 2019).
Among all 110,000 compounds or so, about 230 (0.21%) showed an effect of 50% or more. This is one part of the list.

These molecules were tested against DPAP1 (Plasmodium falciparum, UniProt Q8IIJ9) (assay: primary screen, percent inhibition; read by cleavage of a fluorogenic dipeptide substrate; higher = more effect of the substance).
DPAP1, sequence (Q8IIJ9 whole entry, looked up): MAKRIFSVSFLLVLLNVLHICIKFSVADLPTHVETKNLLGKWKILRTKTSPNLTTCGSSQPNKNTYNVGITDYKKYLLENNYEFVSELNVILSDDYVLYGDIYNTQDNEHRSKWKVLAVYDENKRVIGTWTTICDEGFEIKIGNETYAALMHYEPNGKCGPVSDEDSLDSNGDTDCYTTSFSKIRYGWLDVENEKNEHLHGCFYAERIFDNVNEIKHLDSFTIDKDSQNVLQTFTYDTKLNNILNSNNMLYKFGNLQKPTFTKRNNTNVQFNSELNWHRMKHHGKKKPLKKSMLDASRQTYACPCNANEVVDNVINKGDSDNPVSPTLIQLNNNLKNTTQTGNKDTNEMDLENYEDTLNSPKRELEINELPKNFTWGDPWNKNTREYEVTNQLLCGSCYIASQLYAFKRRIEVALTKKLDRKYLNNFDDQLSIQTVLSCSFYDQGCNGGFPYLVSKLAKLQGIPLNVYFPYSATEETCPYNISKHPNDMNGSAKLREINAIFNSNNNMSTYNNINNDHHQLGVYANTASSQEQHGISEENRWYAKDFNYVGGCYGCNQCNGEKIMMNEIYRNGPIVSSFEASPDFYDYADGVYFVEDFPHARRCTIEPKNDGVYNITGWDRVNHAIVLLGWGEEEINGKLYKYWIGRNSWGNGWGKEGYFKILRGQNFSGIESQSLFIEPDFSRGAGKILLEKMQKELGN
Parameters: species or system P. falciparum D10 trophozoite lysates; single well
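Further: 30 min substrate incubation versus DMSO and 10 µM JCP410 controls.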

Row | Structure (SMILES) | % Inhibition @ 10 uM [%]
1 | Nc1[nH]nc2nc(-c3ccccc3)c3c(c12)CCC3 | 3.93
2 | CCCCNC(=O)CN1N=C(c2ccc(OC)cc2)CCC1=O | 1.41
3 | COCc1cc(C)c2c(N)c(C(=O)c3ccccc3)sc2n1 | 0.746
4 | Cc1ccc(S(=O)(=O)c2nc(-c3ccc(Cl)cc3)oc2NCCN2CCOCC2)cc1 | 0.389
5 | COc1ccc(C2Nc3cc(C)ccc3N=C3CC(C)(C)CC(O)=C32)cc1 (centres unmarked) | 4.09
6 | CC1=C(C(=O)OCCc2ccccc2)C(c2ccccc2)C2=C(O)CC(C)(C)CC2=N1 (centres unmarked) | 0.779
7 | CCN(CC)CC#CC(C)(O)C(C)C (centres unmarked) | 0.912
8 | COc1ccc(NC(=O)CSc2nc(N)nc(SC)c2C#N)cc1 | -0.366
9 | Cc1cc(C)c(NS(=O)(=O)c2ccc(N)cc2)c(C)c1 | -1.38
10 | COc1ccccc1C(=O)Nc1sc2c(c1C(N)=O)CCCCCC2 | 6.79
11 | O=C(O)c1ccccc1C(=O)Nc1ccc(S(=O)(=O)N2CCOCC2)cc1 | 3.53
12 | Cc1ccc(-c2cc(C(F)F)nc(N3CCN(Cc4ccccc4)CC3)n2)cc1 | 0.505
13 | CCC(N)C1CCCCNC1=O (centres unmarked) | -2.7
14 | COc1ccc(C2CC(=O)NC3=C2C(=O)CC(c2ccc(OC)c(OC)c2)C3)c(OC)c1 (centres unmarked) | 1.39
15 | CC(C)N(c1c(-c2ccccc2)c(=O)c1=O)C1CCCCC1 | -4.68
16 | CC1=C(c2ccc(C)c(C)c2)S(=O)(=O)N(Cc2ccc(C(=O)NCCN3CCCCC3)cc2)C1=O | 6.31
17 | CCOc1ccc(C2C3CN(CC)CC=C3C(C#N)=C(N)C2(C#N)C#N)cc1 (centres unmarked) | 4.86
18 | CCC1(c2ccc(Cl)cc2)C(=O)c2ccccc2C1=O | -2.51
19 | CCc1ccc(N2CC(C(=O)Nc3cccc(C)c3C)CC2=O)cc1 (centres unmarked) | -6.59
20 | CCOc1cc(C2/C(=C(\O)OC)C(C)=Nc3nnnn32)ccc1OCc1ccccc1 (centres unmarked) | -3.14
21 | CN1CCN(C(=O)CC23CC4CC(CC(C4)C2)C3)CC1 | 0.392
22 | O=c1/c(=C/c2cccnc2)sc2n1CN(c1ccccc1)CN=2 | 1.57
23 | CCOC(=O)C1CCCN(Cc2ccccc2C)C1 (centres unmarked) | -2.03
24 | Cc1scc(CN2CCN(C3CCCCC3)CC2)c1C | 2.3
25 | CC(NC(=O)C1CCCN(S(=O)(=O)N2CCOCC2)C1)c1ccccc1 (centres unmarked) | 7.68
26 | CC(C)c1ccc(C2C(C(=O)c3ccc4c(c3)OCCO4)=C(O)C(=O)N2CCCn2ccnc2)cc1 (centres unmarked) | -5.1

Row | Structure (SMILES) | % Inhibition @ 10 uM [%]
27 | CC(C(=O)N1CCN(Cc2ccccc2)CC1)n1ncn2cccc2c1=O (centres unmarked) | -3.78
28 | O=C(N[C@@H](Cc1cc(I)c(O)c(I)c1)C(=O)N[C@H](/C=C/S(=O)(=O)c1ccccc1)CCc1ccccc1)c1ccc(N2CCOCC2)cc1 | 0.173
29 | C#CC(CNC(=O)OCC)N1CCOCC1 (centres unmarked) | -5.46
30 | CCCCNc1sc(S(C)(=O)=O)nc1S(=O)(=O)c1ccc(C)cc1 | -0.522
31 | Cc1onc(-c2ccccc2)c1C(=O)Nc1cccc(Cl)c1Cl | -3.09
32 | CCN1CCCC1CNCc1c(C(=O)O)n(Cc2ccccc2C)c2ccccc12 (centres unmarked) | -3.21
33 | Cc1oc(-c2ccccc2Cl)nc1CS(=O)(=O)CC(=O)NCCCSC1CCCCC1 | -4.69
34 | CCN1CCC(NCc2cccc(Cl)c2)CC1 | 3.48
35 | COc1ccc(Cl)cc1NC(=O)CN(c1ccccc1C)S(=O)(=O)c1ccccc1 | 3.09
36 | CCOC(=O)C1=C(CS(=O)(=O)c2ccc(Cl)cc2)NC(=O)NC1c1ccccc1C (centres unmarked) | 4.41
37 | Cc1[nH]c2ccccc2c1C(=O)COc1ccccc1 | -3.62
38 | O=Nc1c(O)[nH]c2ccc(Br)cc12 | -1.97
39 | COc1ccc(C2C3C(=O)N(c4ccccc4)C(=O)C3ON2c2ccccc2)cc1 (centres unmarked) | -12.5
40 | CN(C)CCNC(=O)C1CCCN(S(=O)(=O)N2CCCCC2)C1 (centres unmarked) | -0.804
41 | CCOc1ccccc1CNCc1c(C(=O)O)n(Cc2ccc(C)cc2)c2cc(OC)ccc12 | 4.13
42 | CCn1cc(CCC(=O)NC2CCCc3ccccc32)c2ccccc21 (centres unmarked) | 0.0244
43 | Cc1cc(C)nc(N2C(=O)c3ccccc3C2=O)n1 | -0.771
44 | Cc1c(Cc2ccccc2)c(=O)oc2c3c(ccc12)OCN(Cc1ccco1)C3 | -0.685
45 | CCCOc1cc(N(CC)CC)ccc1C=C1C(=O)NC(=S)NC1=O | 0.162
46 | CCc1nc2ccccc2n1CCC(N)=O | 3.05
47 | Cc1cc(C)nc(SCc2csc(-c3ccccc3)n2)n1 | 0.0289
48 | CCn1c(CCNC(=O)c2ccc(Cl)cc2)nc2ccccc21 | -4.23
49 | O=C(c1ccco1)N1CCN(C(=O)c2csc3c2CCCC3)CC1 | 2.95
50 | COC(=O)c1cc(S(=O)(=O)N2CCN(C3CCCCC3)CC2)cn1C | -2.84
51 | O=C(Nc1ccccc1C(=O)O)c1cc(S(=O)(=O)N2CCOCC2)c(Br)s1 | 2.6
52 | CC1CCN(C(=O)/C(=C/c2ccccc2F)NC(=O)c2ccccc2)CC1 | -1.05

Row | Structure (SMILES) | % Inhibition @ 10 uM [%]
53 | O=C(O)CSCc1cnn(-c2ccccc2)c1-n1cccc1 | -1.99
54 | Cc1nnc(N2CCC(C(=O)NCCC3=CCCCC3)CC2)c2nn(-c3ccccc3)c(C)c12 | 0.931
55 | CCC(=O)N1c2ccccc2N=C2CC(C)(C)CC(O)=C2C1c1cccc(F)c1 (centres unmarked) | -10.7
56 | COC(=O)c1c(N)sc(C)c1C | 12.9
57 | CC(C)C[C@H](NC(=O)OCC1CC=CCC1)C(=O)NCC#N (some centres unmarked) | -10.1
58 | CC(C)Cn1cc(NC(=O)N2CCN(C(=O)c3ccco3)CC2)c2ccccc2c1=O | -3.26
59 | OCCNCc1cccc(OCc2ccccc2Cl)c1 | -3.09
60 | O=C(O)CCNc1ncnc2[nH]cnc12 | -5.28
61 | CCOC(=O)C1=C(C)OC(N)=C(C#N)C1c1ccc(F)cc1F (centres unmarked) | 1.96
62 | CC(C)C(=O)N1CCN(c2ccc(NC(=O)c3ccco3)cc2Cl)CC1 | -1.61
63 | CCn1nc(C)c(NC(=O)CSc2nc(-c3ccc(OC)c(OC)c3)cc(C(F)(F)F)n2)c1C | -2.09
64 | COc1cc2c(cc1OC)C(c1ccccc1)=NCC2 | 0.132
65 | O=C(O)CCC(=O)Nc1ccccc1C(=O)N1CCN(c2ccc(Cl)cc2)CC1 | -0.872
66 | Cc1nc(O)nc(O)c1S(=O)(=O)N1CCCC(C(=O)NCc2ccc3c(c2)OCO3)C1 (centres unmarked) | 2.93
67 | COC(=O)c1ccc(Cl)c(-n2cccc2)c1 | -3.08
68 | O=C(COc1ccccc1)Nc1ccc2c(c1)OCO2 | -9.17
69 | Cc1c(C#N)c(O)nc(O)c1/C=N/c1ccc(S(=O)(=O)CCO)cc1 | 2.46
70 | c1nc(N2CCN(C3CCCCC3)CC2)c2nc[nH]c2n1 | -6.98
71 | Cc1ccc2[nH]c(SCCCOc3ccccc3)nc2c1 | -0.0235
72 | Cc1ccc(CNc2nc3c(c(=O)[nH]c(=O)n3C)n2CC(O)COC(C)C)cc1 (centres unmarked) | 4.67
73 | CCCN1CCN(C(=O)C2CCN(c3nnc(C)c4c(C)n(-c5ccccc5)nc34)CC2)CC1 | 3.25
74 | Cc1nc2c(N3CCOCC3)ncnc2[nH]1 | -8.12
75 | Brc1ccc(OCCn2ccnc2)cc1 | -1.56
76 | CCSc1nc(O)c(CC)c(=O)n1C(C)CC (centres unmarked) | -5.32
77 | Cc1csc(NC(=O)C(=O)c2cc(C)n(-c3c(C)cccc3C)c2C)n1 | 0.655
78 | O=C(Nc1sc2c(c1CN1CCCCC1)CCCC2)c1ccc(Br)cc1 | 1.08

Row | Structure (SMILES) | % Inhibition @ 10 uM [%]
79 | CCCCC(=O)Nc1ccc(-c2cn3cccc(C)c3n2)cc1 | -2.64
80 | CC(C)OC(=O)c1ccc(-c2ccc(C=C3C(=O)OC(C)(C)OC3=O)o2)cc1 | -9.24
81 | CCOc1ccc(S(=O)(=O)N(CC(=O)N2CCCCCC2)c2ccc(C)cc2)cc1 | -6.3
82 | CC(C)C(=O)Nc1ccc2nc(-c3cccc(F)c3)oc2c1 | 1.05
83 | O=C(CSc1ccccn1)Nc1nccs1 | 2.19
84 | CCC(C)c1ccccc1NC(=O)c1cccnc1 (centres unmarked) | 2.22
85 | Cc1csc(NC(=O)c2ccccc2Cl)n1 | 5.55
86 | Cc1ccc2c(CC(=O)NC3CCS(=O)(=O)C3)coc2c1C (centres unmarked) | -0.671
87 | N#C/C(=C\c1ccccc1F)c1nc(-c2ccccc2)cs1 | 3.47
88 | O=C(C1c2ccccc2Sc2ccccc21)N1CCCCC1 | -0.828
89 | COc1cc2c(cc1OC)CN(Cc1cc(Br)c(O)c(OC)c1)CC2 | 1.4
90 | CC1=C(C(=O)Nc2cccc(C)n2)C(c2ccccc2C)C2=C(O)CCCC2=N1 (centres unmarked) | 4.65
91 | Cc1cc(C)c2ccc(=O)cc-2o1 | 5.08
92 | COc1cccc(C2C3=C(O)CCCC3=NC(C)=C2C(=O)Nc2cccc(C(F)(F)F)c2)c1OC (centres unmarked) | 2.38
93 | COC(=O)C1=C(C)NC(=O)NC1c1ccc2c(c1)OCCO2 (centres unmarked) | -3.74
94 | O=C(CSc1nnc2ccccn12)Nc1nc(-c2ccc(Cl)cc2)ns1 | -1.11
95 | CCOC(=O)c1cnc2c(C(F)(F)F)cccc2c1NCCO | 1.52
96 | CCOC(=O)N1CCC(NC(=O)C2CCCN(c3nc4ccccc4o3)C2)CC1 (centres unmarked) | 0.387
97 | CN1CCN(CCNC(=O)c2[nH]c3ccccc3c2Sc2ccc(Cl)cc2)CC1 | -6.82
98 | O=C(CNC(=S)N(Cc1ccccc1)Cc1ccccc1F)NCc1ccc2c(c1)OCO2 | 5.99
99 | CCC(C)(C)NS(=O)(=O)c1ccc(CCN2C(=O)c3cccnc3C2=O)cc1 | 2.42
100 | CCSC1=C(C#N)C(c2ccc(C)cc2)CC(=O)N1 (centres unmarked) | 0.673
101 | CC1=C(C(=O)OCC2CCCCC2)C(c2ccccc2Cl)NC(=O)N1 (centres unmarked) | 2
